Measurements published in the RNAGym collection of RNA variant scans (doi:10.1093/nar/gkz1192).
Read counts are not given, so values of variants with three or more changes are uncertain.

B1: CPEB3 Ribozyme (parent)
chain: UAACAGGGGGCCACAGCAGAAGCGUUCACGUCGCAGCCCCUGUCAGAUUCUGGUGAAUCUGCGAAUUCUGCUGUAUAUCUC

Variants of: B1
Assay: self-cleavage, relative activity (ratio to wild type); higher = more cleavage; in vitro, sequencing
In short: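 Relative activity compares each variant's cleaved/total read fraction with that of the unmutated ribozyme. To get these fractions, barcoded CPEB3 ribozyme libraries from rounds of error-prone PCR were transcribed with T7 RNA polymerase for 5 hours at 37°C and then given 15 min of DNase I treatment before EDTA was added. The RNAs were reverse transcribed with template switching and sequenced on Illumina, and DNA sequencing linked barcodes to variants. A minimum of 5 reads applied, and three batches were averaged.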
Variant UAACAGGGGGCCACAGCAGGAGCGUUCACGUCGCAGCCCCUGUCAGAUUCCGGUGAAUCUGCGAAUUCUGCUGUAUAACUC [A20G U51C U78A] has a self-cleavage of 0.71. Variant UAACAGGGGGCCACAGCAGGAGCGUUCACGUCGCAGCCCCUGUCAGAUUCGGGUGAACCUGCGAAUCCUGCUGUAUAUCUC [A20G U51G U58C U67C] has a self-cleavage of 0.19. Variant UAACAGGGGGCCACAGCAGGAGCGUUCACGUCGCAGCCCCUGUCAGAUUCUGGAGAAUCUGUGAAUUCUGCUGUAUAUCUC [A20G U54A C62U] has a self-cleavage of 0.15. With UAACAGGGGGCCACAGCAGGAGCGUUCACGUCGCAGCCCCUGUCAGAUUCUGGAGAAUCUGCGAAUCCUGGUGUAUUUCUC [A20G U54A U67C C71G A77U] the self-cleavage was 0.33. In the case of UAACAGGGGGCCACAGCAGGAGCGUUCACGUCGCAGCCCCUGUCAGAUUCUGGCGCGUCUGCGAACUCUGCUGUAUACCUC [A20G U54C A56C A57G U66C U78C], the self-cleavage is reported as 0.18. With UAACAGGGGGCCACAGCAGGAGCGUUCACGUCGCAGCCCCUGUCAGAUUCUGGCGUAUCUGCGAAUUCUGCUGUUUAUCUC [A20G U54C A56U A75U] the self-cleavage was 0.2. For UAACAGGGGGCCACAGCAGGAGCGUUCACGUCGCAGCCCCUGUCAGAUUCUGGCGUAUCUGCGAAUUCUGUUGUAUAUCUC [A20G U54C A56U C71U], the self-cleavage was 0.21. For UAACAGGGGGCCACAGCAGGAGCGUUCACGUCGCAGCCCCUGUCAGAUUCUGGCGAAUCUGCGUAUUCUGCUGUAUAUCUC [A20G U54C A64U], the self-cleavage was 0.14. For UAACAGGGGGCCACAGCAGGAGCGUUCACGUCGCAGCCCCUGUCAGAUUCUGGCGAAUCUGCGAACUCUGCUGUAUAUCUC [A20G U54C U66C], the self-cleavage was 0.3. UAACAGGGGGCCACAGCAGGAGCGUUCACGUCGCAGCCCCUGUCAGAUUCUGGGGAAUCAGCGAAUUCUGCUGUAUAUCUC [A20G U54G U60A] gave a self-cleavage of 0.23. UAACAGGGGGCCACAGCAGGAGCGUUCACGUCGCAGCCCCUGUCAGAUUCUGGGGAAUCUGCGAAUCCUGCUGAAUAUCUC [A20G U54G U67C U74A] showed a self-cleavage of 1.13. With UAACAGGGGGCCACAGCAGGAGCGUUCACGUCGCAGCCCCUGUCAGAUUCUGGUGAAACUGCGUAUUCUGCUGUAUAUCUC [A20G U58A A64U] the self-cleavage was 0.14. In the case of UAACAGGGGGCCACAGCAGGAGCGUUCACGUCGCAGCCCCUGUCAGAUUCUGGUGAAACUGCGAAUUCUGCUGUAUACCUC [A20G U58A U78C], the self-cleavage is reported as 0.19. UAACAGGGGGCCACAGCAGGAGCGUUCACGUCGCAGCCCCUGUCAGAUUCUGGUGAACCUACGAAUUCUGCUGUAUAUCCC [A20G U58C G61A U80C] showed a self-cleavage of 0.1. UAACAGGGGGCCACAGCAGGAGCGUUCACGUCGCAGCCCCUGUCAGAUUCUGGUGAACCUGCGAACCCUGCUGUAUAUCUC [A20G U58C U66C U67C] showed a self-cleavage of 0.03. Work on UAACAGGGGGCCACAGCAGGAGCGUUCACGUCGCAGCCCCUGUCAGAUUCUGGUGAAGCUGCGAAUUCUGCUGUAUAUCCC [A20G U58G U80C] yielded a self-cleavage of 0.48. UAACAGGGGGCCACAGCAGGAGCGUUCACGUCGCAGCCCCUGUCAGAUUCUGGUGAAUCAGCGAAUUCUGCUGCAUAUCUC [A20G U60A U74C] showed a self-cleavage of 0.43. With UAACAGGGGGCCACAGCAGGAGCGUUCACGUCGCAGCCCCUGUCAGAUUCUGGUGAAUCCGCGGAUCCUGCUGUAUAUCUC [A20G U60C A64G U67C] the self-cleavage was 0.21. With UAACAGGGGGCCACAGCAGGAGCGUUCACGUCGCAGCCCCUGUCAGAUUCUGGUGAAUCCGCGAAUUCUGCUGUAUUUCUC [A20G U60C A77U] the self-cleavage was 0.48. UAACAGGGGGCCACAGCAGGAGCGUUCACGUCGCAGCCCCUGUCAGAUUCUGGUGAAUCCGCGAAUUCUGCUGUAUAACUC [A20G U60C U78A] showed a self-cleavage of 0.44. UAACAGGGGGCCACAGCAGGAGCGUUCACGUCGCAGCCCCUGUCAGAUUCUGGUGAAUCCGCGAAUUCUGCUGUAUAUCCC [A20G U60C U80C] showed a self-cleavage of 0.41. For UAACAGGGGGCCACAGCAGGAGCGUUCACGUCGCAGCCCCUGUCAGAUUCUGGUGAAUCUGCGAAAUCUGCUGUACAUCUC [A20G U66A U76C], the self-cleavage was 0.43. UAACAGGGGGCCACAGCAGGAGCGUUCACGUCGCAGCCCCUGUCAGAUUCUGGUGAAUCUGCGAAAUCUGCUGUAUAUCCC [A20G U66A U80C] showed a self-cleavage of 0.58. For UAACAGGGGGCCACAGCAGGAGCGUUCACGUCGCAGCCCCUGUCAGAUUCUGGUGAAUCUGCGAACUCUGCUAUAAGUCUC [A20G U66C G73A U76A A77G], the self-cleavage was 0.68. Work on UAACAGGGGGCCACAGCAGGAGCGUUCACGUCGCAGCCCCUGUCAGAUUCUGGUGAAUCUGCGAACUCAGCUGUAUAUCUC [A20G U66C U69A] yielded a self-cleavage of 0.19. UAACAGGGGGCCACAGCAGGAGCGUUCACGUCGCAGCCCCUGUCAGAUUCUGGUGAAUCUGCGAAUUCAGCUGUAUAUCAC [A20G U69A U80A] gave a self-cleavage of 0.55. UAACAGGGGGCCACAGCAGGAGCGUUCACGUCGCAGCCCCUGUCAGAUUCUGGUGAAUCUGCGAAUUCCGCUGUAUAUCUU [A20G U69C C81U] gave a self-cleavage of 0.57. For UAACAGGGGGCCACAGCAGGAGCGUUCACGUCGCAGCCCCUGUCAGAUUCUGGUGAAUCUGCGAAUUCCGCUGUAUAACUC [A20G U69C U78A], the self-cleavage was 0.59. Variant UAACAGGGGGCCACAGCAGGAGCGUUCACGUCGCAGCCCCUGUCAGAUUCUGGUGAAUCUGCGAAUUCUGCAGUAUAUCCC [A20G U72A U80C] has a self-cleavage of 1.23. In the case of UAACAGGGGGCCACAGCAGGAGCGUUCACGUCGCAGCCCCUGUCAGAUUCUGGUGAAUCUGCGAAUUCUGCCGUAUGUCUC [A20G U72C A77G], the self-cleavage is reported as 1.19. UAACAGGGGGCCACAGCAGGAGCGUUCACGUCGCAGCCCCUGUCAGAUUCUGGUGAAUCUGCGAAUUCUGCCGUACACCUC [A20G U72C U76C U78C] showed a self-cleavage of 0.93. Work on UAACAGGGGGCCACAGCAGGAGCGUUCACGUCGCAGCCCCUGUCAGAUUCUGGUGAAUCUGCGAAUUCUGCUGCAUAUCCC [A20G U74C U80C] yielded a self-cleavage of 1.27. UAACAGGGGGCCACAGCAGGAGCGUUCACGUCGCAGCCCCUGUCAGAUUCUGGUGAAUCUGCGAAUUCUGCUGUACAUCCC [A20G U76C U80C] showed a self-cleavage of 1.12. With UAACAGGGGGCCACAGCAGGAGCGUUCACGUCGCAGCCCCUGUCAGAUUCUGGUGAAUCUGCGAAUUCUGCUGUAUAACCC [A20G U78A U80C] the self-cleavage was 0.95.
